Over roughly 110,000 compounds, “z-score” has its median near -0.1; the highest 2% begin near 2. This is one part of the list. Activity calls are given as the source filed them.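 The calls were made as follows: active = z-score in the third read window above 3 or below -3; inactive = the rest.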
Target: Metabotropic glutamate receptor 8 (Rattus norvegicus) (UniProt P70579)
Assay: mGluR8 Gi/Go-coupled signaling modulation – cell-based, rat, thallium flux, HTS, primary screen (AID 488969)
Conditions: HEK293 rat mGluR8, GIRK (G protein-gated inwardly rectifying potassium channel) thallium flux, FluoZin2; at 10 µM; stronger effect = higher value; submaximal glutamate (EC20) added with thallium

Chain of UniProt P70579 (P70579 whole entry, looked up): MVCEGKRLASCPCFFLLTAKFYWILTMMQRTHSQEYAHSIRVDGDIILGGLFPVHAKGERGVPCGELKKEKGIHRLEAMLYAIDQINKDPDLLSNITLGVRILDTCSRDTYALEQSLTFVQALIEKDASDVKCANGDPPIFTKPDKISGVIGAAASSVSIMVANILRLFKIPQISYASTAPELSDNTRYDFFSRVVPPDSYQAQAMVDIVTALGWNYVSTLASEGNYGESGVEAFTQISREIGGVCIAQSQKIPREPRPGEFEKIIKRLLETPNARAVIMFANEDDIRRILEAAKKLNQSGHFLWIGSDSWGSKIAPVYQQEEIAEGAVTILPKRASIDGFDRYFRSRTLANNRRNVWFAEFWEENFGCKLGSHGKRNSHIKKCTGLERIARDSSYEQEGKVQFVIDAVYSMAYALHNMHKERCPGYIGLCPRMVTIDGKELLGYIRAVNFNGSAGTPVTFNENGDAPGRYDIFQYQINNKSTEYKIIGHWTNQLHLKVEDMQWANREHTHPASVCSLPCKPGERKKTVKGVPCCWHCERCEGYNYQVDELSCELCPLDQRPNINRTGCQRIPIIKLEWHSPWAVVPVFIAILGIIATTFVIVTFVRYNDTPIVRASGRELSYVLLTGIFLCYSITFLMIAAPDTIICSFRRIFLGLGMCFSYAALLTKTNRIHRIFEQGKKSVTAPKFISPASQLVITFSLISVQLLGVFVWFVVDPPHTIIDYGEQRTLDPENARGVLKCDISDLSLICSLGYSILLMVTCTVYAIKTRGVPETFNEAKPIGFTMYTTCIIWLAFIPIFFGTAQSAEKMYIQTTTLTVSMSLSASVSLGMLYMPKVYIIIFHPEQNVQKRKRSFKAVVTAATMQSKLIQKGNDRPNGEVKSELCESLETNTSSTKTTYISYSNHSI

Row | Structure (SMILES) | z-score
1 | Cc1ccc(S(=O)(=O)N2CCN(S(=O)(=O)c3ccc(C)cc3)C3OCCOC32)cc1 (configuration not stated) | -0.0688
2 | CC1=NN(C(=O)Cc2ccc([N+](=O)[O-])cc2)C(O)(c2cccnc2)C1 (configuration not stated) | -0.0359
3 | COCCn1c(N)c(C(=O)NCc2cccs2)c2nc3ccccc3nc21 | -1.4
4 | Cc1ccc(S(=O)(=O)C(NC(=O)c2ccccc2)=C(Cl)Cl)cc1 | -0.295
5 | Cc1ccc(/C=C/c2nc3ccccc3c(=O)n2CCc2ccccc2)cc1 | -0.19
6 | CC(C)OCCCNS(=O)(=O)c1ccc2c(c1)oc(=O)n2C | -0.0732
7 | COc1cccc(C(C(=O)Nc2ccc(F)cc2)N(C(=O)Cn2nnc3ccccc32)C2CC2)c1 (configuration not stated) | 0.374
8 | CCOC(=O)C(NC(=O)N1CCCCC1)(c1ccccc1)C(F)(F)F (configuration not stated) | 1.12
9 | Fc1ccccc1-c1nc(-c2ccc(Cl)cc2)no1 | -0.169
10 | CC(C)COc1ccc(CNC(=S)N/N=C/c2ccc([N+](=O)[O-])cc2)cc1 | -0.147
11 | CNC(=O)C1C2C=CC3(O2)C1C(=O)N(C1CC1)C3C(=O)NCc1ccc(OC)cc1 (configuration not stated) | -0.267
12 | COCCNc1nc2c(c(=O)n(C)c(=O)n2C)n1Cc1cccc(C(F)(F)F)c1 | -0.367
13 | O=C(Oc1ccc([N+](=O)[O-])cc1)c1ccc2ccccc2n1 | 0.829
14 | CC1CC(C)CN(C(=O)c2ccncc2)C1 (configuration not stated) | -0.15
15 | Cn1cccc1-c1nc2ccccc2n1Cc1ccccc1 | -1.27
16 | O=C(C#Cc1cccc([N+](=O)[O-])c1)c1ccccc1 | 0.135
17 | CN(C)c1ccc(C2NCCS2)cc1 (configuration not stated) | -0.298
18 | COc1ccc(C(=O)NCc2n[nH]c(=S)n2-c2ccccc2)cc1OC | -0.494
19 | Cc1cccc(CC(=O)Nc2cc(C)c3c(=O)oc4ccccc4c3n2)c1 | -0.214
20 | CCc1cc2cccc(C)c2nc1SCC(=O)c1ccc(NC(C)=O)cc1 | active: -4.63
21 | COc1cc(/C=C2/SC(N)=NC2=O)ccc1Oc1ccc([N+](=O)[O-])cc1[N+](=O)[O-] | -0.644
22 | C=CCn1c(SCC(=O)Nc2ccc3c(c2)CCC3)nc2ccccc2c1=O | -0.136

Row | Structure (SMILES) | z-score
23 | CC(C)NC(=O)COC(=O)c1ccc(Cl)c(S(=O)(=O)N2CCCC2)c1 | -0.207
24 | c1ccc(CNCc2ccc3c(c2)OCO3)nc1 | -0.353
25 | COCCN(C(=O)CSc1nncn1-c1ccccc1)c1c(N)n(Cc2ccccc2)c(=O)[nH]c1=O | -0.143
26 | CC1=C(C(=O)OC(C)C)C(c2ccccc2Cl)CC(=O)N1 (configuration not stated) | -0.853
27 | CC1(C)Cc2c(sc3[nH]c(=S)n(Cc4ccccc4)c(=O)c23)CO1 | active: 14.5
28 | CCC1=Nc2cc(C(=O)NCc3ccco3)ccc2Sc2ccc(Cl)cc21 | -0.14
29 | c1ccc(OCCOc2ccccc2-c2nnco2)cc1 | 1.01
30 | Cc1ccc(CCN2C(=O)CCC2(C)C(=O)NCc2cccnc2)cc1 (configuration not stated) | -0.384
31 | CN(C)CCCNc1cn[nH]c(=O)c1Cl | -0.383
32 | Cc1ccc(S(=O)(=O)N2CCN(S(C)(=O)=O)CC2)cc1 | 0.875
33 | CCOC(=O)N1CCC(N2C(=O)c3ccccc3C2Nc2cc(C(=O)OC)cc(C(=O)OC)c2)CC1 (configuration not stated) | -1.36
34 | O=C1c2ccccc2-c2c1cccc2C(=O)N1CCN(C(=O)c2ccco2)CC1 | -0.641
35 | CC(=O)C1=C(O)C(=O)N(c2nccs2)C1c1ccccc1 (configuration not stated) | -2
36 | Cc1ccccc1C(=O)Nc1ccccc1C(=O)NCc1ccccc1 | -0.529
37 | CCCc1nnc(NC(=O)CN2C(=O)c3ccccc3S2(=O)=O)s1 | 1
38 | COc1ccc(-c2csc(N(CCc3ccccc3)C(=O)COc3ccccc3)n2)cc1 | 0.243
39 | COc1ccc(CNC(=O)CN(CCC(C)C)S(=O)(=O)c2ccc3c(c2)OCCO3)cc1 | 0.0312
40 | CCOC(=O)C1C2C=CC3(CN(c4cccc(Cl)c4)C(=O)C13)O2 (configuration not stated) | -0.568
41 | CC(C)(C)N(NC(=O)c1ccccc1)C(=O)c1ccc(C(=O)N(NC(=O)c2ccccc2)C(C)(C)C)cc1 | -0.0679
42 | FC(F)Oc1ccccc1NC(=S)NCc1ccco1 | 0.0626
43 | CC1CN=C(N(C(=O)Nc2ccccc2)c2ccc(S(=O)(=O)N3CCOCC3)cc2)S1 (configuration not stated) | 0.945
44 | Cc1nc2scc(-c3ccco3)c2c(=O)n1/N=C/N(C)C | 0.326

Row | Structure (SMILES) | z-score
45 | Nc1c(C(=O)c2ccccc2)sc(Nc2ccccc2)c1S(=O)(=O)c1ccccc1 | 0.456
46 | C=CCn1c(=N)c(C(=O)OCC)cc2c(=O)n3cccc(C)c3nc21 | -0.017
47 | COc1ccc(C(=O)NN2CC(O)=C(c3nc4ccccc4n3C)C2=N)cc1OC | -0.703
48 | Cc1ccc(C(=O)NC(=S)Nc2ccc3c(c2)OCCO3)c(C)c1 | 2.7
49 | CCOC(=O)C1=C(N)N(c2ccc(N3CCCCC3)cc2)C(=O)C1 | 0.709
50 | O=C(CN1C(=O)NC2(CCCC2)C1=O)Nc1ccccc1F | 0.0198
51 | c1ccc(-n2nnnc2NCCCN2CCOCC2)cc1 | 0.0335
52 | Cc1nnc2n(c1=O)N=C(c1ccc(Cl)cc1)CS2 | 0.0699
53 | Cc1ccc(NC(=S)NCCCN2CCOCC2)cc1 | -0.207
54 | CC1Cc2ccccc2N1C(=O)CN1C(=O)COc2ccccc21 (configuration not stated) | 0.564
55 | Cc1ccc(S(=O)(=O)N2CCC(C(=O)NCC3CCCO3)CC2)cc1 (configuration not stated) | 0.0152
56 | Cc1nc(SCC(=O)NCc2ccco2)c2c(C)c(C)sc2n1 | -0.0392
57 | Cc1cc(C2=NNC(=NCc3ccccc3)SC2)c(C)n1-c1c(C)n(C)n(-c2ccccc2)c1=O | -0.278
58 | CCOc1ccc(/C(CC)=N/NC(=O)C2(C)CC2(Br)Br)cc1 (configuration not stated) | 0.538
59 | COC(=O)c1sccc1NC(=O)c1ccco1 | -0.499
60 | COc1ccc(N2CCN(C(c3cccs3)c3nnnn3C3CCCC3)CC2)cc1 (configuration not stated) | -0.462
61 | CN(CC(=O)Nc1ccc(Cl)cc1)CC(=O)Nc1ccc(F)c(F)c1F | -0.0456
62 | COc1ccccc1N(CC(=O)NCCSc1ccccc1)S(C)(=O)=O | -0.0727
63 | CC(=O)CC(=O)Nc1ccn(-c2ccccc2)n1 | -0.208
64 | CCN(CC)S(=O)(=O)c1ccc2[nH]cc(C(=O)NCCc3ccccc3)c(=O)c2c1 | -0.113
65 | COc1ccc(C2CC(=O)C3=C(C2)Nc2ncnn2C3c2ccccc2C)cc1 (configuration not stated) | -0.877
66 | CCN(CC)c1ccc(NC(=O)C2CCCN(S(=O)(=O)c3cccnc3)C2)c(C)c1 (configuration not stated) | -0.605

Row | Structure (SMILES) | z-score
67 | COc1cccc2cc(-c3nc(-c4cccs4)cs3)c(=O)oc12 | -0.744
68 | C/C(=N\NS(=O)(=O)c1ccc(C)c([N+](=O)[O-])c1)c1cc2ccccc2o1 | -0.245
69 | Cc1cccc(-c2nc(CN3CCCC(C(=O)NC4CCCCCC4)C3)c(C)o2)c1 (configuration not stated) | 1.13
70 | Cc1noc(C)c1CSc1ccccc1C(=O)N1CCN(c2ccccc2)CC1 | -0.323
71 | Cc1cc2ccccc2c(=O)n1CC(=O)NCC(=O)N1CCCC(C)C1 (configuration not stated) | 0.0756
72 | COCCNC(=O)c1cccc(Nc2nc(-c3ccccc3)c3cc(Cl)ccc3n2)c1 | -1.26
73 | Cc1ccccc1OCC(=O)OCC(=O)Nc1cc(C(F)(F)F)ccc1N1CCOCC1 | -0.183
74 | CCC(CC)c1nnc(NC(=O)c2c(-c3ccccc3)noc2C)s1 | -0.156
75 | CC1(C)OC(=O)N(c2ccccc2)C12C=Cc1cc(Br)ccc1O2 (configuration not stated) | -0.751
76 | O=C(NCc1cccnc1)C1CC(=O)N(C2CCCCC2)C1 (configuration not stated) | 0.0767
77 | Cc1ccc(S(=O)(=O)N(C)C)cc1NC(=O)C1CCCC1 | -0.00397
78 | COC(=O)C1C(=O)C2=C(CC1C)NC(C)=C(C(=O)OCc1ccc(OC)cc1)C2c1ccc(C)o1 (configuration not stated) | -0.77
79 | COc1ccc(-c2cc(C(F)(F)F)nc(NCc3cccnc3)n2)cc1 | -0.571
80 | Cc1ccc(C)c(S(=O)(=O)Nc2ccccc2C(=O)Nc2ccc(S(=O)(=O)Nc3ncccn3)cc2)c1 | 0.861
81 | Cc1ccc2c(c1)N(CC(=O)c1cccc(Cl)c1)C(=O)C(C)O2 (configuration not stated) | -0.211
82 | COc1ccccc1N1CCN(C2CCN(C(=O)c3cccc(F)c3)CC2)CC1 | -0.254
83 | COc1cc(Cl)c(S(=O)(=O)NCCCN2CCOCC2)cc1Cl | -0.403
84 | Cc1ccc2cc(CN(CC(C)C)C(=O)C3CCCO3)c(=O)[nH]c2c1 (configuration not stated) | -0.106
85 | CN1CCN(C(=S)SCC(=O)Nc2nc(-c3ccccc3)c(-c3ccccc3)o2)CC1 | -0.0527
86 | COC(=O)c1ccc(NS(=O)(=O)c2cc(C)ccc2OC)cc1 | 0.111
87 | Cc1cccc(NC(=O)c2cccc(Cn3cc(Br)c([N+](=O)[O-])n3)c2)c1C | -0.106
88 | COc1ccc(-c2nn(-c3ccccc3)cc2/C=N/NC(=O)c2ccc(Br)o2)cc1 | -0.211

Row | Structure (SMILES) | z-score
89 | COc1cc(C(=O)N/N=c2/sc3ccccc3n2C)cc(OC)c1OC | 0.462
90 | CCN(CC)C(=O)CSc1nc2ccccc2c(=O)n1-c1ccccc1OC | active: -3.48
91 | CCOC(=O)c1nc(Nc2ccc(C(=O)OC)cc2)c2ccccc2n1 | -0.481
92 | CSCC[C@H](NC(=O)NCCc1ccc(F)cc1)C(=O)O | -0.317
93 | CC(=O)Nc1ccc(NC(=O)COc2ccccc2C(=O)Nc2cccc(Cl)c2Cl)cc1 | 0.28
94 | Cc1ccccc1Nc1nc2nonc2nc1N1CCOCC1 | active: 6.03
95 | N#C/C=C(/N)c1ccc(Br)cc1 | -0.0152
96 | CC(=O)CSc1nc2ccccc2o1 | -0.0278
97 | COc1cc(/C=C(/C#N)c2nc3ccccc3[nH]2)ccc1OCc1ccc(C(=O)O)o1 | -0.222
98 | CC(Cc1cccs1)NC(=S)Nc1ccc(Cl)cc1 (configuration not stated) | 0.996
99 | COc1ccc(C(=O)Nc2ccc(S(=O)(=O)Nc3cc(C)nc(C)n3)cc2)c(OC)c1 | 0.0186
100 | O=C(c1ccccc1)N1CCCC(c2nc3c(nnn3Cc3ccccc3)c(=O)[nH]2)C1 (configuration not stated) | -0.398
101 | O=C(Cn1nc(Cl)nc1Cl)c1cc2ccccc2oc1=O | -0.931
102 | CCc1ccccc1NC(=S)NCc1cccn1C | 0.000642
103 | CCOc1cc(-c2c(C#N)c(N)nc3c2CCc2ccccc2-3)ccc1O | -0.215
104 | C=C(C)CSc1nnc(CCNC(=O)OC(C)(C)C)o1 | 2.19
105 | O=c1[nH]c(CN2CCc3ccccc32)nc2scc(-c3cccs3)c12 | 0.311
106 | O=c1[nH]c(CSc2ccccn2)nc2c1cnn2-c1ccccc1 | 0.0602
107 | C=CCn1c(SCCN2C(=O)c3ccccc3C2=O)nc2scc(-c3ccccc3)c2c1=O | -1.56

Source: PubChem BioAssay AID488969 (Vanderbilt High Throughput Screening Facility, 2010)
